Experimental data: the supplement of paper PMC3334620
In all, about 33,000 sequences were measured (“E-score (-0.5 to 0.5)”: median about -0.032, highest 2% from about 0.36 on). This is one part of the list.

target: T1, Sko1 (UniProt Q02100); experiment: PBM E-score (8-mer binding enrichment) (E-score (-0.5 to 0.5)); higher = stronger / more preferred TF binding; most listed sequences are background and not binding sites; conditions: protein concentration: 200 nM; construct: GST-full length
T1 sequence: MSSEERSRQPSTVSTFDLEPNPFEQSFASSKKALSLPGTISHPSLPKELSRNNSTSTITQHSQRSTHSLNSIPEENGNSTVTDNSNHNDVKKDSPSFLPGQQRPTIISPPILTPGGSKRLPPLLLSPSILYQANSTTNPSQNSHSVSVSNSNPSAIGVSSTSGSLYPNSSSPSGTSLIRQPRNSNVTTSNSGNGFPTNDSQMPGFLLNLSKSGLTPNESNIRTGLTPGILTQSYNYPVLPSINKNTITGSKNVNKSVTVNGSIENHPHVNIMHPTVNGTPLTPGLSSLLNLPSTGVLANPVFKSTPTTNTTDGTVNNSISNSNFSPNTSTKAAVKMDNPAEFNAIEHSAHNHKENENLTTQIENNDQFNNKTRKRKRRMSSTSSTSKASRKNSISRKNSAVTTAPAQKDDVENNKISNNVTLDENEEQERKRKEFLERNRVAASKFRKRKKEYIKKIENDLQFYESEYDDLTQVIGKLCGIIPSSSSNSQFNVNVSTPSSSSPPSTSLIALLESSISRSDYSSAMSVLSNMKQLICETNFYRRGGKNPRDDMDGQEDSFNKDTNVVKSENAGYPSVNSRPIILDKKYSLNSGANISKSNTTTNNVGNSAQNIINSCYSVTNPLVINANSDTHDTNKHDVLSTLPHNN
Procedure: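 Universal 'all 10-mer' protein binding microarrays (Agilent AMADID 015681) probed with GST-tagged S. cerevisiae TFs (full-length or DBD) made by in vitro transcription/translation (PURExpress), about 100-200 nM. Bound TF was detected with fluorescent anti-GST. Each ungapped 8-mer (which stands for itself and its reverse complement) is scored by the PBM enrichment score (E-score), a modified Wilcoxon-Mann-Whitney statistic from -0.5 to +0.5, computed with the Universal PBM Analysis Suite. Scale: above 0.35 generally sequence-specific binding.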

Row | Sequence | PBM E-score
1 | GTCCGACA | 0.0675
2 | GGGCGTTA | 0.0396
3 | GGCAAATA | 0.125
4 | CATCGGGA | 0.0116
5 | ATGATTTA | 0.178
6 | ACACCGAC | -0.0294
7 | GTCCCATA | -0.072
8 | CAGGAGGG | -0.101
9 | CCGCCGCA | -0.145
10 | CGTCCACA | 0.0327
11 | CTCTCATC | -0.0637
12 | CCCGGATA | -0.207
13 | CGGATCAA | -0.0256
14 | AAGATGTA | 0.206
15 | CATAATTA | 0.304
16 | CTCCGAGC | -0.157
17 | ACGGGTTC | -0.296
18 | ACCCTAAT | -0.0571
19 | GGCTCTAC | -0.201
20 | TAAGACAA | 0.15
21 | GCAACCAA | 0.0415
22 | CTTCCCAC | -0.0483
23 | ATCGACGG | -0.226
24 | GACCCTCC | -0.292
25 | TCAACGCA | 0.195

Row | Sequence | PBM E-score
26 | GGAACACC | -0.253
27 | AGAACTAA | 0.0418
28 | GACGGTGA | -0.0192
29 | CCATTCGA | 0.0551
30 | CGTAGAGC | 0.116
31 | AAGTAGCC | -0.333
32 | GACGTGGA | 0.23
33 | AGAGAGAC | -0.133
34 | GCGAATTA | 0.232
35 | ACAATTGG | -0.186
36 | GAGCTTGC | -0.0565
37 | AACATTTC | 0.129
38 | CCGACTCC | -0.294
39 | TAAAAGGA | -0.088
40 | CTTGCGTC | 0.27
41 | GGTAATCA | 0.0412
42 | AGTTTACA | 0.17
43 | AAATCCAT | 0.212
44 | AGCTACAG | -0.278
45 | ATGTGAAT | 0.162
46 | CCAAGCGC | -0.147
47 | AAAGAAGC | -0.0191
48 | CCTCCTTC | -0.269
49 | ACAGCGCA | -0.225
50 | ATCCGGCG | -0.054

Row | Sequence | PBM E-score
51 | ATACGGAT | 0.111
52 | GGACTGCC | -0.309
53 | ATTAGCAC | 0.0376
54 | CCGACCGA | -0.283
55 | CTACCCCC | -0.391
56 | GAGCCGCA | -0.105
57 | CGAATTGC | 0.0603
58 | AGGTACCG | -0.0121
59 | GGACTATA | -0.0152
60 | GAATCTGC | -0.17
61 | TCGCGGAA | -0.277
62 | ACCCCTTC | -0.152
63 | CATCGCCG | -0.137
64 | CCACCGGC | -0.255
65 | GATTTTGC | -0.146
66 | GCGACACC | -0.144
67 | CGTCTTTA | 0.253
68 | CCCTTGCC | -0.337
69 | ATTCTTAA | 0.0641
70 | CCGGGAAC | -0.211
71 | CAGCACTC | -0.0266
72 | ATCGGGTC | -0.147
73 | GCGAGAGA | -0.16
74 | CGTTAGAG | -0.0197
75 | ATGTGGTA | 0.133

Row | Sequence | PBM E-score
76 | ACCTCCAC | -0.11
77 | GAGGACAC | -0.0881
78 | ACTGATCT | 0.169
79 | GCTATCCA | -0.145
80 | ACATGCGA | 0.04
81 | GCGGCAAC | -0.0548
82 | TCGTCAGA | 0.307
83 | GGCGAGGA | -0.222
84 | AGGATAGG | -0.198
85 | GAGTTATA | 0.0198
86 | CCCTTTTA | -0.281
87 | GCCATACC | -0.259
88 | CGGACTAG | -0.293
89 | AGTCCTGC | -0.185
90 | CTGAGCAC | -0.171
91 | CCCCCTGC | -0.29
92 | AACTATCT | -0.0231
93 | GAGGTACA | 0.00532
94 | AAGGGGTC | -0.0371
95 | GCAGACGC | -0.107
96 | CTCGTCGA | 0.0276
97 | GCCTCCCC | -0.19
98 | AACTGAAT | -0.0415
99 | GTAATCAA | 0.228
100 | CTATTCGC | -0.0146

Row | Sequence | PBM E-score
101 | AGGGTGAG | -0.207
102 | CAACTTGG | 0.0671
103 | CGACATTC | 0.165
104 | AGAGTACT | -0.0858
105 | ATATCCTC | -0.115
106 | AGGGTGAC | 0.184
107 | GACCTTAA | -0.0623
108 | CTATATCC | -0.146
109 | CGGCAAGC | -0.0636
110 | ATTCATAA | 0.156
111 | CCGCACAG | -0.225
112 | CTCGTGCC | -0.27
113 | AGGCAATG | 0.00123
114 | CCCTGGCG | -0.112
115 | CCATGACA | 0.163
116 | CTGCTGGA | -0.159
117 | CAGTATCG | -0.1
118 | ACAAGCCA | -0.187
119 | ACCTATTA | 0.141
120 | ATAAACTC | 0.102
121 | GAAGTCCC | -0.334
122 | GACGGGAA | 0.0248
123 | AGATTTCG | 0.114
124 | CATTTCTA | 0.0296
125 | AGAGTTGA | -0.0236

Row | Sequence | PBM E-score
126 | GAACCCAC | 0.0247
127 | TGTACCAA | 0.185
128 | ACCGGCCG | -0.205
129 | ATGATACG | 0.339
130 | CTCTGGCC | -0.173
131 | GTGACCAA | 0.0721
132 | ATTGGCTA | -0.00448
133 | CTTTATCC | -0.0554
134 | GTAACGTA | 0.421
135 | CTCGGCAA | -0.0838
136 | CAAGCAAC | 0.122
137 | ACCGAAGA | 0.0708
138 | AATTCTAG | 0.0547
139 | AATCAATT | 0.114
140 | AGGATACC | -0.201
141 | AGGCACTA | -0.0926
142 | ATACGTCC | 0.369
143 | AGCTAGCG | -0.0649
144 | AGTTTAGA | 0.0209
145 | AGGTGGAA | 0.00738
146 | CCTATAAG | -0.147
147 | ACAAGTCG | -0.166
148 | ACAGATCC | 0.0595
149 | AAACACGT | 0.413
150 | AGCGACCG | -0.0747

Row | Sequence | PBM E-score
151 | AACGGCGG | -0.353
152 | CAACAGGG | -0.154
153 | CTTGTTCA | 0.072
154 | CCGTACGG | -0.262
155 | ACAGTGGG | -0.343
156 | AAAGTATA | 0.208
157 | ATAACGAA | 0.268
158 | CAAGGTTA | 0.0617
159 | ACCTCCGC | -0.349
160 | CAGACCAA | -0.0712
161 | CAAGCACA | -0.152
162 | AATAATTG | 0.0921
163 | GTCGTGAA | 0.0748
164 | TGCCAGCA | -0.0186
165 | GCGGTACC | -0.238
166 | GAATTAGC | 0.0445
167 | GAGATCAC | 0.00833
168 | AAAGTAAT | 0.214
169 | AGAAGTAC | 0.106
170 | TGCGCAAA | 0.107
171 | AACACACA | 0.0918
172 | TCACAGCA | 0.034
